Experimental data as given in the supplement of paper PMC3334620.
In all, about 33,000 sequences were measured (“E-score (-0.5 to 0.5)”: median about -0.054, highest 2% from about 0.35 on). This is one part of the list.

Molecular target: T1, Stb5 (UniProt P38699)
T1 sequence: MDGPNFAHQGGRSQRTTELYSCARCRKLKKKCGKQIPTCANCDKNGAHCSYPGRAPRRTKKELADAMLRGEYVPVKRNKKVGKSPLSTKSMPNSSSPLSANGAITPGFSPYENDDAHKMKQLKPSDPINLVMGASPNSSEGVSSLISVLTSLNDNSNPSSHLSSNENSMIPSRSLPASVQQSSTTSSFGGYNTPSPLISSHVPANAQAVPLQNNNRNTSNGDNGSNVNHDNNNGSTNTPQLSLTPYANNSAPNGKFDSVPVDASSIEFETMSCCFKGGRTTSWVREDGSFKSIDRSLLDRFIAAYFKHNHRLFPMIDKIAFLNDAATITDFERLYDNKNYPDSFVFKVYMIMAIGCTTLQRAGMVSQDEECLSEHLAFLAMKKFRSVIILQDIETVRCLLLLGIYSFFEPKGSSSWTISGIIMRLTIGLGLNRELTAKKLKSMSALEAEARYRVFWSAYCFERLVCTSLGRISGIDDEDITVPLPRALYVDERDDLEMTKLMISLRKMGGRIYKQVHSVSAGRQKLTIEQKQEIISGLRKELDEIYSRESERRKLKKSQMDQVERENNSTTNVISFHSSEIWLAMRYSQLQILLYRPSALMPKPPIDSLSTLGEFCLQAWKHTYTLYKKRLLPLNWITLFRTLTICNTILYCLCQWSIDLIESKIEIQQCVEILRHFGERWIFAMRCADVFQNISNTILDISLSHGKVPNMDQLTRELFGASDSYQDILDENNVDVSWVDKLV
Assay: PBM E-score (8-mer binding enrichment) (E-score (-0.5 to 0.5)); higher = stronger / more preferred TF binding; most listed sequences are background and not binding sites
Details: protein concentration: 200 nM; construct: GST-full length
Procedure, shortened: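 Yeast transcription factors, full-length or as DNA-binding domains, were expressed with a GST tag using PURExpress in vitro transcription/translation. At about 100-200 nM they were applied to universal all-10-mer Agilent arrays, double-stranded by primer extension on fresh or once-stripped slides. Fluorescent anti-GST detected bound protein, and masliner normalised the scans. E-scores for ungapped eight-base words, pooled with reverse complements, came from the Universal PBM Analysis Suite.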

| Sequence | PBM E-score |
| --- | --- |
| AACCTACG | -0.144 |
| CAATATGG | 0.016 |
| CTCGACAA | -0.2 |
| GTTTTGGA | 0.0205 |
| ACCCGTGG | 0.0263 |
| ATCGATAA | -0.139 |
| ATCCTTAC | -0.12 |
| ATAGATGA | -0.00332 |
| CAGAGCCA | -0.355 |
| CGGGCAAA | 0.283 |
| AGGCTTTA | -0.0205 |
| ACACGGAA | 0.00647 |
| AGCATCGG | 0.214 |
| CGTTAGCA | 0.0642 |
| GGTTTCCA | 0.0443 |
| GACGAAAA | 0.0682 |
| AGCCGGCT | 0.213 |
| CTTAGCCC | 0.214 |
| AGGATCTG | -0.3 |
| AGTTAGTA | -0.0553 |
| ACTGCTAC | -0.11 |
| GTTGTTAA | 0.0384 |

| Sequence | PBM E-score |
| --- | --- |
| GCTATAAA | 0.168 |
| CTTAGCAC | 0.0775 |
| TATGGAGA | -0.0821 |
| CCTGAATC | -0.0703 |
| GAATGATC | -0.177 |
| ACGTACCG | 0.176 |
| CGTTCGTA | -0.00665 |
| AGGTACCT | -0.277 |
| CGTAAGAG | 0.0393 |
| GCTAAGAA | -0.0209 |
| ACCATACA | -0.0607 |
| GAGAGCGC | -0.0261 |
| CGCGACCG | 0.173 |
| CAAGCCGG | 0.176 |
| TCGACTCA | -0.378 |
| ACGCCTAT | -0.198 |
| AAGCTTTC | -0.0152 |
| ATTTCCTA | -0.0241 |
| TCAGCAAA | -0.197 |
| ATCCGTCA | 0.162 |
| AAGTTTCT | -0.108 |
| ACGGGCGG | 0.278 |

| Sequence | PBM E-score |
| --- | --- |
| AAAAGTAC | 0.0236 |
| GGTTAGTA | -0.00434 |
| ACTAGTTC | -0.00942 |
| ACCCCTTG | -0.304 |
| CCAGATTA | 0.0275 |
| ATGTTACA | -0.104 |
| ATATACAG | -0.0727 |
| CAGCTTGC | -0.109 |
| GCGAACGC | 0.101 |
| CTAGCAGC | -0.116 |
| TAAGTTCA | -0.105 |
| CACTGTTC | -0.226 |
| AGTTCGGG | 0.213 |
| GCATCGTA | 0.00812 |
| GCAGTCTA | -0.141 |
| GAAATTAC | -0.00713 |
| GCAGCTAA | 0.0139 |
| CGCAGTAA | 0.132 |
| ATCTGCAG | -0.0623 |
| GGCTTGAA | -0.0431 |
| CCAACCCG | -0.0445 |
| GGTTTTAA | 0.305 |

| Sequence | PBM E-score |
| --- | --- |
| AACATGCA | -0.213 |
| AGACCCTG | -0.347 |
| TAATCGAA | -0.0124 |
| CCTAGCTC | -0.0992 |
| CAAGATGG | -0.13 |
| CCACTGCA | -0.266 |
| AAATGGGA | -0.122 |
| CAAATTGG | -0.192 |
| AGACGGCC | 0.116 |
| GCGAAAAA | 0.0259 |
| AGACCTAC | -0.0437 |
| CATCTAAG | 0.0271 |
| TCGATAAA | 0.092 |
| CACTTTGG | 0.0234 |
| GCCTTCAC | 0.0498 |
| AGGGGTTA | 0.239 |
| AATGGCGA | 0.0389 |
| ACACCGTG | 0.416 |
| CCGGTTGC | 0.232 |
| GTGCTTTA | -0.0465 |
